The other results are listed elsewhere or left out. At the low end of the ranking the order means little.
What follows are sequences tested against T1, GST-Rok-C97-191 (UniProt O34857) (assay: protein binding microarray). Conditions: Rok is a gene silencer of Bacillus subtilis; high values mean tight binding; most listed sequences are background and not binding sites; double strand, one strand shown.
T1 sequence: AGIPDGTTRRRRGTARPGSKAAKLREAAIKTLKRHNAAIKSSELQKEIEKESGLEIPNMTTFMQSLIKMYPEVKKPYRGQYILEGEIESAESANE
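Note: rank score from −0.5 (least bound) to 0.5 (best bound).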

Sequence	binding signal [E-score]
ACCTGCTA	-0.227
ACGTTTCT	0.18
AAGCTACC	0.362
CTCGGCAG	-0.0953
AAATGGAT	0.226
AAGAGTTC	-0.0763
AGAGACTC	-0.16
ATTTGCAC	0.135
CCCTATGC	-0.104
CATCGCAA	0.064
ACTGGGGA	-0.208
AGCAGGGC	-0.15
CCTGAGCA	-0.144
CCAACGCA	-0.181
CGGAGTGA	-0.189
GAAGTGGC	-0.132
CAGTGGGC	-0.187
CCCAAGGC	-0.218
AGTTAAAA	0.324
ACAGACCA	-0.0557
ATACAGAA	0.13
CAAAATAA	0.0411

Sequence	binding signal [E-score]
ATTAACAC	0.00323
TGAAGCCA	-0.143
CTAAGTGA	-0.000539
AGAGACGC	-0.162
CTCTGAGA	0.0417
GGGGTACC	-0.307
AGGGGTTA	0.0414
AAAGGAGC	-0.143
AAGGGCAC	-0.165
AACCGTTA	0.14
CGCAGTTC	-0.224
ATGACTAG	0.108
CGGCGCAA	-0.202
GGCGGCCA	-0.298
GTGTTTTA	0.173
ATACAACG	0.172
CCTGCATA	0.0203
AGAGGGAC	-0.178
TCACTCAA	0.135
CAGACGTC	-0.0671
ATGTCAAC	-0.000706
ACGTACCA	0.18

Sequence	binding signal [E-score]
CAACGTAG	0.185
ACGGCGAA	-0.0487
AGAAATCA	0.222
CTAACAAG	-0.0537
CCTTGTGA	-0.104
GGATCACC	-0.00901
CTAAACCA	0.13
TCCATCGA	-0.208
ATATCTTG	0.0605
GTCTTCAA	-0.0762
AGCTACCA	0.35
GACTTCAA	-0.192
CAATCAAC	0.11
AGCCCTAG	-0.244
CATGTTTA	-0.151
AGACGATA	0.0652
CCTTATGA	0.0321
TGCCGACA	-0.157
ATGTACCG	0.305
CAGGATAG	0.0399
GCCTTTGA	-0.0616
CCGTATGC	-0.19

Sequence	binding signal [E-score]
CTACTCAA	0.000659
CCGGAGGA	-0.252
GAGGCCTC	-0.191
AGTCAAAG	-0.141
CAGTGGCA	-0.25
AATGGTCG	-0.192
TCTTTAAA	0.0662
ACCCTCCG	-0.293
GAAATATA	0.305
AGAGCACA	0.0298
AGTACCAA	-0.00151
GTGATCAA	-0.0649
CCGAGCAG	-0.0217
GAAGACCA	-0.0771
CGCTGAGC	-0.0805
ACACTGAC	-0.0517
TAACCCAA	-0.0144
AGTGCTTC	-0.27
AGTCTCCA	-0.0736
ATAGCTAA	0.294

From article PMC6212790
